According to PubChem BioAssay AID1745853 (National Center for Advancing Translational Sciences (NCATS), 2022):
Values joined by “and” are separate entries in the source; they are usually repeats but may differ in a detail not shown here. Identical values can stand only once. The list shows a part of the results. Shown are side measurements of this screen, not its main read-out; they come without a call. Peptide text beside a SMILES is read from it. * marks the point of attachment. AMC = Cc1cc(=O)oc2cc(N*)ccc12; Cbz = O=C(OCc1ccccc1)*

Columns and labels:
Assay in all cases: Primary Screen for Target Class Profiling of Small Molecule Inhibitors of Methyltransferases
[1] = biological target: Glycine N-methyltransferase (Homo sapiens) (UniProt Q14749); conditions: purified enzyme, MTase-Glo SAH luminescence; measured here: GNMT inhibition; at 40 µM; stronger effect = lower value
Procedure, shortened: (§1)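 Each enzyme was reacted with SAM and its substrate, with compounds tested once at 40 uM; SAH formed was read by MTase-Glo luminescence.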

[2] = biological target: Guanidinoacetate N-methyltransferase (Homo sapiens) (UniProt Q14353); conditions: purified enzyme, MTase-Glo SAH luminescence; measured here: GAMT inhibition; at 40 µM; stronger effect = lower value
Procedure, shortened: as §1

[3] = biological target: Histamine N-methyltransferase (Homo sapiens) (UniProt P50135); conditions: purified enzyme, MTase-Glo SAH luminescence; measured here: HNMT inhibition; at 40 µM; stronger effect = lower value
Procedure, shortened: as §1

[4] = biological target: Nicotinamide N-methyltransferase (Homo sapiens) (UniProt P40261); conditions: purified enzyme, MTase-Glo SAH luminescence; measured here: NNMT inhibition; at 40 µM; stronger effect = lower value
Procedure, shortened: as §1

[5] = biological target: Phenylethanolamine N-methyltransferase (Homo sapiens) (UniProt P11086); conditions: purified enzyme, MTase-Glo SAH luminescence; measured here: PNMT inhibition; at 40 µM; stronger effect = lower value
Procedure, shortened: as §1
% is set by controls: 0 for no effect and ±100 for the full control effect.

Structure (SMILES)	activity change, negative = inhibition [1]	activity change, negative = inhibition [2]	activity change, negative = inhibition [3]	activity change, negative = inhibition [4]	activity change, negative = inhibition [5]
COc1ccc2cc3n(c2c1)CC(C)(C(=O)NCC1CCCO1)N(Cc1cccnc1)C3=O (stereo not given)	4.38%	0.409%	4.74%	10.8%	0.148%
O=S(=O)(c1ccc(Cl)cc1)c1nnn2c1nc(NCc1ccc(F)cc1)c1ccccc12	-2.54%	2.06%	-0.504%	3.96%	-3.71%
Cc1ccc(Cn2c(=O)c3ccccc3n3c(=O)n(CC(=O)Nc4ccc5c(c4)OCCO5)nc23)cc1	8.19%	0.675%	8.18%	6.87%	5.04%
CCc1cc(N2CCN(C(=O)[C@H]3CCC[C@@H](O)C3)CC2)ncn1	-1.09%	-3.96%	-2.01%	-3.81%	2.32%
c1ccc(CNc2nc(N3CCOc4ccccc43)nc3c2CCCC3)cc1	0.291%	-6.63%	2.57%	-21.9%	-2.28%
O=C(O)C1=NOC2CN(Cc3nc4ccccc4s3)CC12 (stereo not given)	-5.66%	-7.11%	-2.27%	-9.61%	-12.7%
Fc1cccc(-c2nnn3c2nc(N2CCCC2)c2cc(Cl)ccc23)c1	4.48%	0%	9.89%	13.7%	3.3%
Cc1ccc(C)c(Cn2nc3n(C)c(=O)c4ccc(C(=O)NC5CCCC5)cc4n3c2=O)c1	-4.61%	0%	10.5%	-5.42%	-1.81%
CC1CCCCC1NC(=O)C1(C)Cn2c(ccc2-c2ccco2)C(=O)N1Cc1ccc(F)cc1 (stereo not given)	0.587%	0%	0.691%	-0.382%	-1.83%
COc1ccccc1CNC(=O)C1(C)Cn2nc(-c3ccccc3)cc2C(=O)N1C1CCCCCC1 (stereo not given)	-1.14%	5.53%	-0.36%	-3.77%	-1.53%
CCOC(=O)C1CCCN(c2nc3c(S(=O)(=O)c4ccccc4)nnn3c3ccccc23)C1 (stereo not given)	-21.7%	1.26%	-2.63%	-3.07%	-4.84%
Cc1cccc(Cn2nc3n(CC(C)C)c(=O)c4ccc(C(=O)NC(C)C)cc4n3c2=O)c1	3.87%	0%	5.53%	2.56%	5.8%
COc1ccc2cc3n(c2c1)CC(C)(C(=O)NC1CCCC1)N(Cc1ccccc1Cl)C3=O (stereo not given)	-1.66%	5.33%	-1.46%	-5.42%	-6.91%
CS(=O)(=O)N1CCC(OC2CCN(C(=O)c3cccnc3)CC2)CC1	-0.261%	-1.02%	1.56%	0.376%	2.97%
CC(C)COc1cc(=O)n2c(c1C(=O)NC1CCCCC1)CCCCC2	0.033%	-2.6%	1.48%	0.857%	-1.28%
CC1CCC(NC(=O)C2(C)Cn3c(nc4ccccc43)C(=O)N2CCCc2ccccc2)CC1 (stereo not given)	-4.47%	0%	8.15%	-8.61%	-6.46%
Cc1cc(=O)oc2cc(NC(=O)[C@H](CCC(=O)O)NC(=O)[C@H](CC(C)C)NC(=O)[C@H](CC(C)C)NC(=O)OCc3ccccc3)ccc12 (Cbz-Leu-Leu-Glu-{AMC})	-5.15%	17%	7.53%	-78.3%	2.56%
COc1cc2nc(N3CCN(C(=O)COc4c(OC)cccc4C(C)C)CC3)nc(N)c2cc1OC	-9.76%	13.3%	4.23%	-20.4%	5.09%
CCC1(N2CCN(C(=O)c3ccccc3C(F)(F)F)CC2)CCN(C(=O)C(C)C)C1 (stereo not given)	-7.04%	-4%	-3.78%	-5.75%	0.403%
C=Cc1ccc(Cn2nc3n(C(C)C)c(=O)c4ccc(C(=O)NC5CCCC5)cc4n3c2=O)cc1	2.64%	0%	10.2%	-2.07%	4.04%

Structure (SMILES)	activity change, negative = inhibition [1]	activity change, negative = inhibition [2]	activity change, negative = inhibition [3]	activity change, negative = inhibition [4]	activity change, negative = inhibition [5]
NC(N)=NCCCCN=C(N)N	-8.28%	1.84%	-1.87%	-9.09%	-1.88%
Cn1c(=O)c2ccc(C(=O)NC3CCCCC3)cc2n2c(=O)n(CC(=O)NCc3ccccc3)nc12	-3.02%	-0.764%	-3.97%	-4.55%	-6.28%
C[S+](CC[C@H](N)C(=O)[O-])C[C@H]1O[C@@H](n2cnc3c(N)ncnc32)[C@H](O)[C@@H]1O (stereo not given in full)	0.499%	2.78%	5.25%	0.787%	1.71%
COC(=O)[C@@H](NC(=O)[C@H](CC(C)C)NC(=O)N(Cc1ccccc1)C[C@@H](O)[C@H](Cc1ccccc1)NC(=O)OC(C)(C)C)C(C)C	-3.9%	-11%	9.71%	-16.3%	-1.81%
CC/C=C/C=C/C1(C)OC(CC(CO)OC)=CC1=O (stereo not given)	-2.93%	2.52%	4.92%	-7.17%	1.64%
COc1ccc(C(=O)N2CCC3(CC2)CN(c2ccccc2)C3=O)cc1OC	-8.53%	-15.1%	-5.34%	-16.1%	-8.98%
O=C(C1CCN(c2cnn(Cc3ccccc3)c(=O)c2)C1)N1CCCC1 (stereo not given)	-3.49%	-6.89%	-3.56%	-9.65%	-2.72%
O=C(Nc1cccc(Br)c1)c1cccc(S(=O)(=O)N2CCCCCC2)c1	5.77%	-7.02%	6.41%	-25.9%	-4.23%
CCCCN1C(=O)c2cc(C(=O)Nc3c(C)cccc3C)nn2CC1(C)C(=O)NC1CCCC1 (stereo not given)	3.16%	0%	-5.87%	6.48%	3.15%
CCC(CC)C(=O)NCCc1noc(C)n1	-0.254%	0.388%	2.68%	3.31%	0.845%
O=C(O)Cn1nnc(-c2cc(N3CCC(Oc4cc(F)ccc4Br)CC3)no2)n1	-7.37%	-12.7%	-2.77%	-27.1%	-13.5%
C[C@@H]1CC[C@]2(C(=O)O)CC[C@]3(C)C(=CCC4[C@@]5(C)CC[C@H](O)C(C)(C)C5C(O)C[C@]43C)[C@@H]2[C@]1(C)O (stereo not given in full)	3.67%	6.62%	9.67%	-7.7%	8.38%
CCN1CCN(CC(O)COc2cccc(CNCc3cnn(CC)c3)c2)CC1 (stereo not given)	-7.27%	-9.7%	-9.93%	-18.2%	-11.5%
COc1ccc(CC(=O)N[C@H]2[C@H](O)[C@H](O)C[C@@H]2c2ccccc2)cc1	-4.93%	-3.81%	-3.8%	-8.09%	0.529%
COc1ccc(N2C(=O)c3ccc(-c4ccco4)n3CC2(C)C(=O)NCc2ccccc2)cc1 (stereo not given)	-27.6%	-2.37%	-4.21%	-10.8%	-7.31%
CC(C)CCn1c(=O)c2ccc(C(=O)NC3CCCCC3)cc2n2c(=O)n(Cc3ccc(F)cc3)nc12	4.55%	0%	5.82%	0.387%	2.93%
CCOC(=O)c1cc2n(n1)CC(C)(C(=O)NCCC(C)C)N(c1cc(OC)cc(OC)c1)C2=O (stereo not given)	-1.65%	0%	2.98%	4.6%	1.83%
C[S+](=O)([O-])c1cccc(NC(=O)Cc2c[nH]c3ncc(-c4cccnc4)cc23)c1	-27.7%	-14.8%	-21%	-28.3%	-22.2%
COc1ccc(CCC(=O)N2CCC(Cc3nc(-c4ccc(OC)cc4)no3)CC2)cc1	-5.17%	2.04%	0.746%	-6.04%	-3.4%
CCCS(=O)(=O)N1CCC(c2noc(-c3ccccc3)n2)C1 (stereo not given)	-1.63%	0.049%	-1.45%	-0.455%	-12.5%

Structure (SMILES)	activity change, negative = inhibition [1]	activity change, negative = inhibition [2]	activity change, negative = inhibition [3]	activity change, negative = inhibition [4]	activity change, negative = inhibition [5]
CCCc1nn(C)c2c(=O)[nH]c(-c3cc(S(=O)(=O)N4CCN(C)CC4)ccc3OCC)nc12	1.83% and 0.067%	14.9% and -1.24%	7.49% and 2.62%	-2.66% and -22.8%	0.338% and 2.37%
CCc1cc2c(cc3n2CC(C)(C(=O)NC2CCCCCC2)N(c2ccc(C)cc2C)C3=O)s1 (stereo not given)	3.01%	0.735%	4.11%	6.52%	-0.664%
CCc1cc2c(cc3n2CC(C)(C(=O)NC2CCC(C)CC2)N(Cc2ccccc2OC)C3=O)s1 (stereo not given)	0.857%	0%	7.23%	0.095%	1.93%
CCCCN(CC)CCN1C(=O)c2ccc(-c3ccco3)n2CC1(C)C(=O)NC1CCC(C)CC1 (stereo not given)	-2.02%	2.5%	2.73%	-18.7%	0.025%
COc1ccc(CN2CCC3(C2)C(=NC2CCCCC2)NC(=O)N3c2cc(F)cc(F)c2)cc1 (stereo not given)	-2.07%	-5%	-3.23%	-7.66%	-2.34%
COc1cccc(CNC(=O)Cn2c(=O)oc3cc(S(=O)(=O)N4CCC(C)CC4)ccc32)c1	-12.1%	0.794%	-8.05%	-6.59%	-10.9%
COc1ccc(CNc2nc3c(S(=O)(=O)c4cc(C)ccc4C)nnn3c3ccccc23)cc1	-7.47%	-3.2%	-5.29%	-14.2%	-5.83%
CN(C[C@@H]1COCCO1)S(=O)(=O)Nc1ccc2ccc3ncc(-c4cnn(C)c4)cc3c(=O)c2c1	-13.5%	1.47% and -12.5%	3.7%	-13.5% and -21.8%	-11.5% and -27.9%
CCCN1C(=O)c2c(C(=O)NCc3cccc(F)c3)ncn2CC1(C)C(=O)NCc1ccc(OC)cc1 (stereo not given)	-0.506%	0%	-3.35%	1.35%	3.55%
CCN1CCN(Cc2ccc(NC(=O)c3ccc(C)c(NC(=O)c4cncc(-c5cccs5)c4)c3)cc2C(F)(F)F)CC1	4.01%	3.86%	5.03%	-16.7%	-1.56%
CCOC(=O)c1ccc(N2C(=O)CSc3c(c4ccccc4n3C)C2C(=O)NCCC(C)C)cc1 (stereo not given)	9.17%	0%	3.73%	-0.591%	3.41%
COc1cccc(NS(=O)(=O)c2cc3c(cc2C)n(C)c(=O)n3C)c1	-0.883%	0%	-4.85%	-7.13%	-1.2%
COc1ccc(OC)c(CNC(=O)Cn2ccc3cc(S(=O)(=O)N4CCC(C)CC4)ccc32)c1	8.67%	2.76%	1.71%	4.4%	4.89%
Cc1cc2c(cc3n2CC(C)(C(=O)NC2CCCCCC2)N(c2cccc(Cl)c2C)C3=O)o1 (stereo not given)	-3.63%	2.86%	-1.96%	2.16%	-1.3%
CC(C)CCn1c(=O)c2ccccc2n2c(SCc3ccc(F)cc3)nnc12	2.03%	4.76%	4.02%	-7.64%	4.65%
Cc1ccc(NC(=O)N2CCCN(CCn3nc4n(c3=O)CCCC4)CC2)cc1F	-7.95%	-10.4%	-5.11%	0.241%	-7.32%
Clc1ccc(C2Nc3ccc4ccccc4c3C3C=CCC32)cc1 (stereo not given)	3.32%	-0.394%	0.272%	-10.7%	-6.57%
COc1cc2c(=O)[nH]c3c(C(=O)NCc4ccc5c(c4)OCO5)sc(=S)n3c2cc1OC	1.49%	0%	1.42%	3.45%	0.507%
